In paper PMC4336329 (PLoS ONE, 2015):
Among all 310,000 compounds or so, about 2,200 (0.71%) showed an effect of 50% or more. The effect is printed as a negative number. The list shows a part of the results.

Biological target: human ether-à-go-go-related gene (hERG) potassium channel (human, UniProt Q12809)
Experiment: primary screen, population patch clamp on CHO cells stably expressing hERG

Sequence of human ether-à-go-go-related gene (hERG) potassium channel (Q12809 whole entry, looked up): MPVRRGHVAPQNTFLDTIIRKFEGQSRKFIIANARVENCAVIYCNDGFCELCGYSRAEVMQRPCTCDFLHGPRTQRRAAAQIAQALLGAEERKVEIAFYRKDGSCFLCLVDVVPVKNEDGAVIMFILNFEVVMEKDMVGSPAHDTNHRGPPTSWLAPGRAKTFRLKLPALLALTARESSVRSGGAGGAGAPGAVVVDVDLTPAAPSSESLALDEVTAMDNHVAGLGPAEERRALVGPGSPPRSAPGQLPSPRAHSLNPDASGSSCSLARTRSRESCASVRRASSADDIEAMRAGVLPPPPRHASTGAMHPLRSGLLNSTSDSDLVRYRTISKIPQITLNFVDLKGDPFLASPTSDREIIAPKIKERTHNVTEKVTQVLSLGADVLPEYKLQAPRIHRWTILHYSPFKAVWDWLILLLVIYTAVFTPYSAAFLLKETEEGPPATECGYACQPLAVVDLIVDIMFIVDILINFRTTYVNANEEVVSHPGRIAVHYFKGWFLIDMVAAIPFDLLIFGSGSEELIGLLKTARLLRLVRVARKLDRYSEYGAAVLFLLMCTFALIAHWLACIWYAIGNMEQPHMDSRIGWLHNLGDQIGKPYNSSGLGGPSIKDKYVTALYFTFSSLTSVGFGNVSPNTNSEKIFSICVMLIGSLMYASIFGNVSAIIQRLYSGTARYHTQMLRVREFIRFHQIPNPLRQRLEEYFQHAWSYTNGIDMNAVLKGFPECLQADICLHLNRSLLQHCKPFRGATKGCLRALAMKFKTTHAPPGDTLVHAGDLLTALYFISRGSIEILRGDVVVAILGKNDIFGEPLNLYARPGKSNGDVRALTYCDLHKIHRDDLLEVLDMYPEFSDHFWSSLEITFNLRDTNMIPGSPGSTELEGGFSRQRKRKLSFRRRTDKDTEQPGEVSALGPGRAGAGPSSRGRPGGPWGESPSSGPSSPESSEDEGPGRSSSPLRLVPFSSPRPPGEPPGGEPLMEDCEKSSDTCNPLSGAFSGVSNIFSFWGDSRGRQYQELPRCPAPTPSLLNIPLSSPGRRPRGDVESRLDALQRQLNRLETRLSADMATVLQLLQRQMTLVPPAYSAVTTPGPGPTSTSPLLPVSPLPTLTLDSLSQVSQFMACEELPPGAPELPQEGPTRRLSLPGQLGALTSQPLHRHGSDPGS

SMILES	hERG current change (%, negative = inhibition) at 1uM [%]
COc1cccc(C(=O)NNC(=O)c2ccccc2Br)c1	8.48
CN(C)c1ccc(C(=O)OCC(=O)NCCC2=CCCCC2)cc1	11.2
c1ccc(-n2c(-c3ccco3)nnc2-c2ccco2)cc1	5.9
CCCCN(CC)Cc1ccc(CNC(=S)Nc2ccccc2F)o1	6.6
CCN(CC)S(=O)(=O)c1ccc(C(=O)NCc2ccc3c(c2)cc(C)n3C)cc1	15.2
Cc1ccccc1CC(=O)NCCN1CCCCC1	11.7
Cc1ccccc1C1C(=O)c2ccccc2C1=O	17.2
Cc1ccc(C(=O)NCCNC(=O)c2cnccn2)cc1	11.5
Cc1cnn(C(=O)c2cc(-c3ccccn3)nc3ccc(Cl)cc23)c1	12.9
Cc1ccc(Sc2ccc(NC(=O)CCl)cc2)cc1C	4.79
C=CCn1c(Cc2nc3ccc(Cl)cc3[nH]2)n[nH]c1=S	13.4
Cc1ccc(NC(=O)COC(=O)c2ccc(Cl)nc2)cc1S(=O)(=O)N1CCCCC1	13.9
CC(C)(C)c1ccc(S(=O)(=O)NCC2CCCO2)cc1 (centres unmarked)	8.44
CC(=O)N1CCCSC1=Nc1ccccc1	10.6
COc1ccc(Cl)cc1NC(=O)CSc1nnc(-c2ccncc2)n1CC1CCCO1 (centres unmarked)	-6.14
Cc1ccc2c(c1)C(c1ccccc1)N(C(=O)c1cc3ccccc3oc1=O)CC(=O)N2 (centres unmarked)	1.48
O=C(CN(C1CCCCC1)S(=O)(=O)c1ccccc1)NCc1cccnc1	5.52
COC(=O)c1sc2ccccc2c1-n1cccc1C(=O)C(=O)Nc1ccc(F)cc1	-3.76
COc1ccc(Nc2nc(Cl)nc(NCc3ccco3)n2)cc1	14.4
CC(NC(=O)COC(=O)CCc1nc2ccccc2c(=O)[nH]1)c1ccccc1 (centres unmarked)	-20.2

SMILES	hERG current change (%, negative = inhibition) at 1uM [%]
Cc1ccc(-c2cnn3c(N4CCOCC4)cc(C)nc23)cc1	4.77
CCCCC(=O)OCC(=O)Nc1ccc(SC(F)F)cc1	8.07
CCOc1ccc2ncc(S(=O)(=O)c3ccc(C)cc3)c(N3CCC4(CC3)OCCO4)c2c1	1.29
Cl.NCCn1c(-c2ccccc2)cc(C(=O)O)c1-c1ccccc1F	7.29
O=C(NCN1CCc2ccccc2C1)c1cnccn1	8.04
CCOc1ccc(C(=O)Nc2ccc(-c3nc4ccccc4[nH]3)cc2)cc1[N+](=O)[O-]	11.2
COC(=O)c1cc2occc2n1Cc1nc(-c2ccccc2C)oc1C	12.1
COC(=O)c1ccc(NC(=S)NC2c3ccccc3CC2O)cc1 (centres unmarked)	14.3
CCOC(=O)c1c[nH]c2c(C)ccc(Cl)c2c1=O	11.5
CC1CCN(S(=O)(=O)c2ccc(C(=O)Nc3nnc(-c4ccccn4)o3)cc2)CC1	14.2
CC1(C)CC(=O)C(C=NCCN2CCN(CC(=O)Nc3ccc(F)cc3)CC2)=C(O)C1	13.6
O=C1CC(c2ccc(F)cc2)CC(O)=C1C=NCCN1CCN(C(=O)Nc2ccccc2)CC1 (centres unmarked)	-17.3
O=C(Cn1nnc2ccccc21)N/N=C\c1cccs1	12.9
c1ccc(CNc2nc3ccccc3n3cnnc23)nc1	6.63
O=C1CN(C(=O)COc2ccc(Br)cc2F)c2ccccc2N1	10.9
CCOC(=O)c1[nH]c(C)c(C)c1C	15.3
CN1C(=O)c2ccc(NC(=O)c3c(F)c(F)c(F)c(F)c3F)cc2C1=O	7.61
COCCN1C=C2C(=O)C(C)(OC(=O)C3CCCC3)C(=O)C=C2C=C1c1ccsc1 (centres unmarked)	11.6
O=C(O)CC/C(=C\c1cc([N+](=O)[O-])ccc1Cl)c1nc2ccccc2s1	6.83
CC1Cc2ccccc2N1C(=O)CSc1ncc(-c2ccc(F)cc2)n1C (centres unmarked)	5.9

SMILES	hERG current change (%, negative = inhibition) at 1uM [%]
COc1ccc(Br)cc1CN1CCN(CCO)CC1	2.94
Cn1c(=O)cc(SCC(=O)N2CCC3(CC2)OCCO3)c2ccccc21	12.8
Cc1ccc2c(c1)=C/C(=C\c1c(O)[nH]c(=O)[nH]c1=O)C(=O)N=2	-0.505
CCn1c(/C=C/N(C(C)=O)c2ccccc2)[n+](CC)c2ccc(Cl)cc21.[I-]	5.77
Cc1c(-n2c(CN3C(=O)c4ccccc4C3=O)nc3ccccc3c2=O)c(=O)n(-c2ccccc2)n1C	11
Cc1ccc(OCC(=O)NCc2cccnc2)cc1	9.97
Cc1cc(C)cc(OCC(=O)N/N=C/c2ccncc2)c1	12.5
CCCCn1c(-c2csc3c2CCC(C)C3)n[nH]c1=S (centres unmarked)	0.422
Cc1ccccc1Cn1ccc(NC(=O)c2nn3cccnc3c2Cl)n1	11.6
COc1ccccc1NC(=O)CCN1CCCCCC1.Cl	3.7
CCOC(=O)Nc1ccc(S(=O)(=O)Nc2onc(C)c2C)cc1	1.85
CCCCSC(=S)NC1CCS(=O)(=O)C1 (centres unmarked)	3.86
CC(C)Oc1cccc(-c2cc(C(=O)N3CCN(S(C)(=O)=O)CC3)c3ccccc3n2)c1	6.9
COc1ccccc1C(=O)CSc1n[nH]c(N)n1	17.7
COc1cc(C(CC(=O)N2CCN(c3ccccc3)CC2)c2c(OC)cc(OC)c3ccc(=O)oc23)cc(OC)c1OC (centres unmarked)	-5.08
CCn1c(-c2csc3c2CCCC3)n[nH]c1=S	8.88
O=C1CSC(c2ccccn2)N1c1ccccc1F (centres unmarked)	15.7
CCCS(=O)(=O)c1ccc(COC(=O)c2ccc(NC(C)=O)cc2)cc1	16.9
COc1ccc(C(c2nnnn2CC2CCCO2)N2CCC(C(N)=O)CC2)cc1 (centres unmarked)	11.6
